Results taken from publication PMC11783601, “Analogue-Sensitive Inhibition of Histone Demethylases Uncovers Member-Specific Function in Ribosomal Protein Synthesis” (Journal of the American Chemical Society, 2025).

Target: T1, KDM4A F185A (asKDM4A) in HEK293T cells (Homo sapiens, UniProt O75164, F185A)
T1 construct: we generated the F185A mutation in full-length KDM4A carrying all of the functional domains; host or cells: HEK293T
T1 sequence (O75164 1-1064 F185A): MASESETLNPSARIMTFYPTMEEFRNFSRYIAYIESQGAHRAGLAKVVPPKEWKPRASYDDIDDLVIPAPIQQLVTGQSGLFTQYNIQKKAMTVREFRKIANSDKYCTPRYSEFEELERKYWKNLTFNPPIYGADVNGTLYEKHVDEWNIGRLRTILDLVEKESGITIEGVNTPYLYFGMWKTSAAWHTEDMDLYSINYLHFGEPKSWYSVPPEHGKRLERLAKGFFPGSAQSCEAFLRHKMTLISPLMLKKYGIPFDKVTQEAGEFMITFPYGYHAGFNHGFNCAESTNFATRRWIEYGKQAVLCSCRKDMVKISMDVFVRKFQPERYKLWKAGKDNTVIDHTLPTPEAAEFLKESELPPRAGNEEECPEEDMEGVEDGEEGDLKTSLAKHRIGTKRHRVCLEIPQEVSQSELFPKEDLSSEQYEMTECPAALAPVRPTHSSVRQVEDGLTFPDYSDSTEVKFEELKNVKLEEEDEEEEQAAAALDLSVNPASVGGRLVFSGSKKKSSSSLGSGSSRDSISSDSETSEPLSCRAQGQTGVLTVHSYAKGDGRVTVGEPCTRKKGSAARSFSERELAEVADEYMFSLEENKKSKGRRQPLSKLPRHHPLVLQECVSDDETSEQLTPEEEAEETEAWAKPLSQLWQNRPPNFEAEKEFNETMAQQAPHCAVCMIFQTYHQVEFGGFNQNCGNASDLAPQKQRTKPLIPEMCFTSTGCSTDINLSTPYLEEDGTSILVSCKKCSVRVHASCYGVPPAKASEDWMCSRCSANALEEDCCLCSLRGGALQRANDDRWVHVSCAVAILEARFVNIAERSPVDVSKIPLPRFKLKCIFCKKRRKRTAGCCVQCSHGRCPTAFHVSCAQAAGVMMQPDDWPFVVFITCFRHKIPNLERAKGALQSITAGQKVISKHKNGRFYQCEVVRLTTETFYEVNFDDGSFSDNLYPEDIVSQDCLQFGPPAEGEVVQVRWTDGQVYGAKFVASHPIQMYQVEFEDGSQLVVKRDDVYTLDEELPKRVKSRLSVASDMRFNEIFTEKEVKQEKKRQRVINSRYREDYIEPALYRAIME
Assay: Histone extraction, digestion and tandem mass spectrometry (relative abundance of histone modifications)
Format: cell-based
Protocol: HEK293T cells were transiently transfected with asKDM4A and treated with varying concentrations of 6A or 6B. […] To further confirm the activity of the enzyme–inhibitor pair, we performed tandem mass spectrometry of tryptic histones isolated from HEK293T cells expressing asKDM4A in the presence or absence of 100 μM 6A. […]
22. Histone extraction, digestion and tandem mass spectrometry
HEK 293-T cells (ATCC CRL-1573) were plated into 6-well plates (Corning) in DMEM (Corning) supplemented with 10% FBS (Corning) and 1X Antibiotic/Antimycin
(Penicillin/Streptomycin/Fungiozone) (Cytiva HyClone) in an incubator held at 37 °C with 5%
CO2. At 75% confluency, cells were transfected with 2.5 µg KDM4A F185A or Empty Vector with 5µg Thermo Turbofect (FERR0531). After 4 hours, the media was washed and 200 µM of 6A or equivalent volume of DMSO was added and left to incubate at 37 °C for 24 hours. Cells were then washed with 1X PBS (Corning) followed by trypsinization (Gibco TrypLE™ Express Enzyme). Collected cells were centrifuged at 3000xg for 3 minutes, followed by washing with 1X PBS and centrifuged for an additional 3000xg for 3 minutes. Histone proteins were extracted from the pellet as described by25 to ensure good-quality identification and quantification of single histone marks. Briefly, cell pellets were dissolved in 100 µL of cold 0.2 M H2SO4 and incubated for 2 hours rotating in a cold room (4 °C). Aliquots were then centrifuged at 3400xg for 5 minutes […]
at 4 °C and the supernatant was added to a fresh tube. 100% cold TCA was then added to a final volume of 33% volume/volume TCA/supernatant and left to incubate for 1 hour in a cold room (4 °C). Samples were then centrifuged at 3400xg for 5 min at 4 °C and the supernatant was discarded. The precipitate was then washed with cold acetone/0.1% HCl and centrifuged at 3400xg for 5 minutes at 4 °C. The supernatant was discarded, and the precipitate was washed with cold acetone and centrifuged at 3400xg for 5 minutes at 4 °C. The supernatant was discarded, and the pellet was dried using a vacuum centrifuge.
The pellet was dissolved in 50 mM ammonium bicarbonate, pH 8.0, and histones were subjected to derivatization using 5 µL of propionic anhydride and 14 µL of ammonium hydroxide (all Sigma Aldrich) to balance the pH at 8.0. The mixture was incubated for 15 min and the procedure was repeated. Histones were then digested with 1 µg of sequencing grade trypsin (Promega) diluted in 50mM ammonium bicarbonate (1:20, enzyme:sample) overnight at room temperature.
Derivatization reaction was repeated to derivatize peptide N-termini. The samples were dried in a […]
Sample desalting: Prior to mass spectrometry analysis, samples were desalted using a 96-well plate filter (Orochem) packed with 1 mg of Oasis HLB C-18 resin (Waters). Briefly, the samples were resuspended in 100 µl of 0.1% TFA and loaded onto the HLB resin, which was previously equilibrated using 100 µl of the same buffer. After washing with 100 µl of 0.1% TFA, the samples were eluted with a buffer containing 70 µl of 60% acetonitrile and 0.1% TFA and then dried in a […]
LC-MS/MS Acquisition and Analysis: Samples were resuspended in 10 µl of 0.1% TFA and loaded onto a Dionex RSLC […] (Thermo Scientific), coupled online with an Orbitrap Fusion Lumos (Thermo Scientific). Chromatographic separation was performed with a two-column system, consisting of a C-18 trap cartridge (300 µm ID, 5 mm length) and a picofrit analytical column (75 µm ID, 25 cm length) packed in-house with reversed-phase Repro-Sil Pur C18-AQ 3 µm resin. Peptides were separated using a 30 min gradient from 1-30% buffer B (buffer A: 0.1% formic acid, buffer B: 80% acetonitrile + 0.1% formic acid) at a flow rate of 300 nl/min.
The mass spectrometer was set to acquire spectra in a data-independent acquisition (DIA) mode.

[1] = peptide AGGKAGKDSGKAKAKAVSR, F185A cells treated with NOL, replicates _1, _2
[2] = peptide AGGKAGKDSGKAKTKAVSR, F185A cells treated with NOL, replicates _1, _2
[3] = peptide AGGKAGKDSGKAKTKAVSR, F185A cells treated with NOL, replicates _1, _2, listed as NOL
[4] = peptide AKAKSR, F185A cells treated with NOL, replicates _1, _2, listed as NOL
[5] = peptide AKAKTR, F185A cells treated with NOL, replicates _1, _2, listed as NOL
[6] = peptide GKGGKGLGKGGAKR(H4_4_17), NOL sample, replicates _1 and _2, listed as NOL
[7] = peptide GKQGGKAR(H2A1_4_11), NOL sample, replicates _1 and _2, listed as NOL
[8] = peptide GKQGGKVR(H2AJ_4_11), NOL sample, replicates _1 and _2, listed as NOL
[9] = peptide GKTGGKAR(H2AX_4_11), NOL sample, replicates _1 and _2, listed as NOL
[10] = peptide KGNYAER(H2A1_36_42), NOL sample, replicates _1 and _2, listed as NOL
[11] = peptide KQLATKAAR(H3_18_26), NOL-treated samples, replicates _1 and _2, listed as NOL

CC(C)CC(NC(=O)C(=O)O)C(=O)O (stereo not drawn) [compound 6, N-oxalyl leucine]
Ratio H2AV_1_19 unmod (peptide AGGKAGKDSGKAKAKAVSR(H2AV_1_19), NOL sample, replicates _1 and _2, listed as NOL): 0.9128 and 0.9779
Ratio H2AV_1_19 K4acK7ac [1]: 0
Ratio H2AV_1_19 K4acK11ac [1]: 0
Ratio H2AV_1_19 K4acK11acK15ac [1]: 0
Ratio H2AV_1_19 K4acK15ac [1]: 0
Ratio H2AV_1_19 K4acK7acK11acK15ac (peptide AGGKAGKDSGKAKAKAVSR, F185A cells treated with NOL, replicates _1, _2, listed as NOL): 0.04673 and 0.01678
Ratio H2AZ_1_19 K4acK7acK11ac [2]: 0
Ratio H2AZ_1_19 K4acK11acK15ac [2]: 0
Ratio H2AZ_1_19 K7acK11ac [2]: 0
Ratio H2AZ_1_19 K4acK7acK11acK15ac [3]: 0.009939 and 0.006407
Ratio H2AZ_1_19 K15ac [3]: 0.005028 and 0.007978
Ratio H2AZ_1_19 unmod [3]: 0.845 and 0.955
Ratio H2A3_12_17 K13me1 [4]: 0.1111 and 0.1568
Ratio H2A3_12_17 K15me1 [4]: 0.7248 and 0.5722
Ratio H2A3_12_17 unmod [4]: 0.1632 and 0.2648
Ratio H2A1_12_17 K13me1 [5]: 0.01837 and 0.05049
Ratio H2A1_12_17 K15ac [5]: 0.1518 and 0.3249
Ratio H2A1_12_17 K15me1 [5]: 0.04835 and 0.1097
Ratio H2A1_12_17 unmod [5]: 0.7807 and 0.5068
Ratio H2A1_72_77 unmod (peptide DNKKTR, F185A cells treated with NOL, replicates _1, _2, listed as NOL): 0.9998 and 0.9973
Ratio H3_73_83 K79ac (peptide EIAQDFKTDLR(H3_73_83), NOL sample, replicates _1 and _2): 0
Ratio H4_4_17 K5ac [6]: 0.01296 and 0.02123
Ratio H4_4_17 K8ac [6]: 0.01341 and 0.01356
Ratio H4_4_17 K8acK12ac [6]: 0.002106 and 0.005789
Ratio H4_4_17 K8acK16ac [6]: 0.01508 and 0.03871
Ratio H4_4_17 K12ac [6]: 0.02796 and 0.04243
Ratio H4_4_17 K12acK16ac [6]: 0.0334 and 0.07469
Ratio H4_4_17 K16ac [6]: 0.2415 and 0.244
Ratio H4_4_17 unmod [6]: 0.6133 and 0.3722
Ratio H2A1_4_11 K5ac [7]: 0.0321 and 0.05065
Ratio H2A1_4_11 K9ac [7]: 0.008867 and 0.01172
Ratio H2A1_4_11 unmod [7]: 0.9518 and 0.8008
Ratio H2AJ_4_11 K5acK9ac [8]: 0.8976 and 0.6715
Ratio H2AJ_4_11 K5me1 [8]: 0.02733 and 0.05547
Ratio H2AJ_4_11 K9me1 [8]: 0.0314 and 0.05184
Ratio H2AJ_4_11 unmod [8]: 0.03735 and 0.1097
Ratio H2AX_4_11 K5me1 [9]: 0.2972 and 0.3508
Ratio H2AX_4_11 K9me1 [9]: 0.6095 and 0.2975
Ratio H2A_82_88 unmod (peptide HLQLAIR, F185A cells treated with NOL, replicates _1, _2): 1
Ratio H2AX_36_42 unmod (peptide KGHYAER(H2AX_36_42), NOL sample, replicates _1 and _2, listed as NOL): 0.9999 and 0.9911
Ratio H2A1_36_42 K36ac [10]: 0.00048 and 0.000169
Ratio H2A1_36_42 unmod [10]: 0.9995 and 0.9998
Ratio H2A3_36_42 unmod (peptide KGNYSER(H2A3_36_42), NOL sample, replicates _1 and _2, listed as NOL): 0.9972 and 0.9999
Ratio H3_18_26 K18me1K23me1 (peptide KQLATKAAR(H3_18_26), NOL-treated samples, replicates _1 and _2): 0
Ratio H3_18_26 K18ac [11]: 0.002488 and 0.003404
Ratio H3_18_26 K18acK23ac [11]: 0.006469 and 0.003158
Ratio H3_18_26 K23ac [11]: 0.506 and 0.4403
Ratio H3_18_26 unmod [11]: 0.485 and 0.5531

Where “and” joins values, the source holds several entries; their conditions need not be identical. Equal values may be shown once.
